This is an account of results in paper PMC4336329 (PLoS ONE, 2015).

Hit rate of the full screen: of about 310,000 compounds, about 2,200 (0.71%) showed an effect of 50% or more. Effects have a minus sign here. This is one part of the list.

Chain of human ether-à-go-go-related gene (hERG) potassium channel (Q12809 whole entry, looked up): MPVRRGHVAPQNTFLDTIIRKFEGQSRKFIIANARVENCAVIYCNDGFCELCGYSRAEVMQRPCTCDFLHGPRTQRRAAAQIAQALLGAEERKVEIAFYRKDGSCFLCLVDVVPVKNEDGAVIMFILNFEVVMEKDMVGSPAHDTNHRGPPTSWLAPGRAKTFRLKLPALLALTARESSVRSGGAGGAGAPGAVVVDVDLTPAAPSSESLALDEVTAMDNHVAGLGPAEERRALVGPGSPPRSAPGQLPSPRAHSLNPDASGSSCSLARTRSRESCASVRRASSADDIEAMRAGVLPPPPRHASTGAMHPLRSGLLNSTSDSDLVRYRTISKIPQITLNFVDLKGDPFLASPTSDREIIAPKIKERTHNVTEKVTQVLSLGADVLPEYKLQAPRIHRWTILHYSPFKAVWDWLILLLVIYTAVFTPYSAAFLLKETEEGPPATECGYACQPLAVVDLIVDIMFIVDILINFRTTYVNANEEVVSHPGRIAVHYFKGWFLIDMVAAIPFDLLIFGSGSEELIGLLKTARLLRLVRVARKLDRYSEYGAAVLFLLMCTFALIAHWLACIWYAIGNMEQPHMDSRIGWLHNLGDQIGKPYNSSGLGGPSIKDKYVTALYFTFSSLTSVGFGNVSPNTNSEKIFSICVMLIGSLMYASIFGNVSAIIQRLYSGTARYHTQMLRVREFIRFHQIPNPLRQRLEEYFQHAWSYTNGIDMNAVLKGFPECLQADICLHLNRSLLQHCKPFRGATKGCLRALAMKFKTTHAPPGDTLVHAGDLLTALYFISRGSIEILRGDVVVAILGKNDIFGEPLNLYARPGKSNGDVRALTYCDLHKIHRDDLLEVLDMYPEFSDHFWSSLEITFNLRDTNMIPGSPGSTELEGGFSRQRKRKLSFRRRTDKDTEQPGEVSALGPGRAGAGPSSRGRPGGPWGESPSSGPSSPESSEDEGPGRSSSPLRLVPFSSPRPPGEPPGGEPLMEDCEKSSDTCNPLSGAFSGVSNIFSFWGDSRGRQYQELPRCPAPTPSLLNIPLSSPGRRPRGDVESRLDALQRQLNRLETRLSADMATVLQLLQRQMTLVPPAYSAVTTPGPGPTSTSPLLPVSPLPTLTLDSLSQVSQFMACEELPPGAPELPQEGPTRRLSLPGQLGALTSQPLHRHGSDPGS

This test addresses human ether-à-go-go-related gene (hERG) potassium channel (human, UniProt Q12809). Kind of test: primary screen, population patch clamp on CHO cells stably expressing hERG.
As for `Cc1ccc(CNC(=O)CN2C(=O)c3ccccc3S2(=O)=O)cc1`, the “hERG current change (%, negative = inhibition) at 1uM” value was 2.59%.

For `Nn1c(Cc2cccc3ccccc23)nnc1SCc1ccccc1Cl`, the “hERG current change (%, negative = inhibition) at 1uM” value is on record as 12.4%. The figure for `O=C(C(=O)N1CCN(c2ccccc2)CC1)c1cn(CC(=O)N2CCCCCC2)c2ccccc12` is 9.13%. `CCCn1c(SCC(=O)Nc2nnc(C)s2)nnc1C1CC1`: the “hERG current change (%, negative = inhibition) at 1uM” value is recorded as 13.9%. The figure for `Cc1ccc(-n2c(SCC(=O)Nc3ncc(Cl)cc3Cl)nc3ccccc32)cc1` is 15.5%; for `O=C(NCC1CCCO1)c1ccc(NC(=O)c2cc(F)c(F)cc2Cl)cc1` (stereo not drawn) it is 11.6%; for `NC(=O)C1(N2CCCCC2)CCN(C(=S)Nc2ccc(F)c(Cl)c2)CC1` it is 2.55%. In the case of `CCN1CCN(c2ncc3c(n2)CC(c2ccc(OC)c(OC)c2)CC3=O)CC1` (stereo not drawn), the “hERG current change (%, negative = inhibition) at 1uM” value is 1.28%.

With `CNc1nc(-c2ccc(OC)cc2)c(-c2ccc(OC)cc2)s1`, the “hERG current change (%, negative = inhibition) at 1uM” value is -1.05%. The figure for `Cc1ccc(OCC(=O)N2CCN(C(=O)c3ccco3)CC2)cc1` is -9.07%. The figure for `O=C(O)COc1ccccc1/C=N/NC(=O)CSc1nc2ccccc2c(=O)n1-c1ccc(Cl)cc1` is 16.2%; for `CC(C)Sc1nc(SCC(=O)NCc2ccco2)c2c3c(sc2n1)COC(C)(C)C3` it is 11.6%; for `O=C(c1cc2c(s1)CCCC2)N1CCN(S(=O)(=O)c2ccccc2C(F)(F)F)CC1` it is 12.5%. The figure for `CC(C(=O)N(C)C)N1c2cccc3cccc(c23)S1(=O)=O` (stereo not drawn) is 13.8%. Regarding `Cn1cnc2c1c(=O)[nH]c(=O)n2Cc1ccccc1`, the “hERG current change (%, negative = inhibition) at 1uM” value stood at 12.2%.

Take `COc1ccccc1C(=O)COC(=O)CCCN=C1NS(=O)(=O)c2ccccc21`: the “hERG current change (%, negative = inhibition) at 1uM” value is reported as 16.1%. The figure for `CCCCn1c(NCc2ccc3c(c2)OCO3)nc2ccccc21` is -14.7%; for `CC(=O)Nc1ccc(S(=O)(=O)N2CCC(N3CCCCC3)CC2)cc1` it is 13.6%. As to `CCN1CCCC1CNS(=O)(=O)c1ccc(C(=O)Nc2ccccc2)cc1` (stereo not drawn), the “hERG current change (%, negative = inhibition) at 1uM” value was found to be 4.23%. The figure for `O=C(NC(=S)Nc1ccc(F)c([N+](=O)[O-])c1)c1ccccc1F` is 8.06%; for `CCN(C(=O)CCS(=O)(=O)c1ccc(Br)cc1)c1ccc2c(c1)OCO2` it is -3.71%. The figure for `CCOC(=O)CSc1nc2sc3c(c2c(=O)n1C1CCCCC1)CCN(C)C3` is -3.63%. The figure for `C=CCn1c(CCSCc2ccc(OC)c(C)c2)n[nH]c1=S` is 15%.

In the case of `O=C(NC1CCCCC1)c1ccc(CN2CCOCC2)cc1`, the “hERG current change (%, negative = inhibition) at 1uM” value turned out to be 2.1%.
